Laboratory results reported in the supplement of paper PMC12217912.
Some of the results follow. The full chains were built here from the parent and the listed change. Inactive controls read about 0.05.

B1: TEV protease; numbered along this chain (parent)
chain: MGESLFKGPRDYNPISSSICHLTNESDGHTTSLYGIGFGPFIITNKHLFRRNNGTLVVQSLHGVFKVKDTTTLQQHLVDGRDMIIIRMPKDFPPFPQKLKFREPQREERICLVTTNFQTKSMSSMVSDTSCTFPSGDGIFWKHWIQTKDGQCGSPLVSTRDGFIVGIHSASNFTNTNNYFTSVPKNFMELLTNQEAQQWVSGWRLNADSVLWGGHKVFMVKPEEPFQPVKEATQL

Variants of: B1
Experiment: raw area under fraction-flipped curve 0-4 h after induction (AUC4h, not background-subtracted), DNA-recorder readout of cleavage of the substrate (dimensionless); higher = more cleavage of the substrate by the protease variant
Details: temperature: 34 °C; time window: 0-4 h after rhamnose induction
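Note: Bxb1 expression induced with 0.2% (w/v) L-rhamnose at OD600 near 0.5, cultures sampled hourly, flipped fraction per protease–substrate barcode pair counted by paired-end Illumina sequencing.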

Row | Variant | area with substrate ENLYDQS | area with substrate ENLYHQS | area with substrate ENLYKQS | area with substrate ENLYMQS | area with substrate ENLYPQS | area with substrate ENLYRQS | area with substrate ENLYSQS | area with substrate ENLYTQS | area with substrate ENLYVQS | area with substrate ENLYYQS | area with substrate ENLYEQS | area with substrate ENLYIQS | area with substrate ENLYLQS | area with substrate ENLYNQS | area with substrate ENLYGQS | area with substrate ENLYQQS | area with substrate ENLYWQS
1 | MGESLFKGPRDYNPISSSICHLTNESDGHTTSLYGIGFGPFIITNKHLFRRNNGTLVVQSLHGVFKVKDTTTLQQHLVDGRDMIIIRMPKDFPPFPQKLKFREPQREERICLVTTNFQTKSMSSMVSDTSCTFPSGDGIFWKHWIQTKDGQCGSPLVSTRDGFIVGIHSASNFTNTNNYFTSVPKNFMELLTNQEAQQWVSGWRLNADSVWWGGHKVFMVKPEEPFQPVKEATQL [L211W] | 0.0662 | 0.0755 | 0.0607 | 0.076 | 0.0706 | 0.0687 | 0.0722 | 0.0617 | 0.11 | 0.021 |  |  |  |  |  |  | 
2 | MGESLFKGPRDYNPISSSICHLTNESDGHTTSLYGIGFGPFIITNKHLFRRNNGTLVVQSLHGVFKVKDTTTLQQHLVDGRDMIIIRMPKDFPPFPQKLKFREPQREERICLVTTNFQTKSMSSMVSDTSCTFPSGDGIFWKHWIQTKDGQCGSPLVSTRDGFIVGIHSASNFTNTNNYFTSVPKNFMELLTNQEAQQWVSGWRLNADSVYWGGHKVFMVKPEEPFQPVKEATQL [L211Y] | 0.0417 | 0.0704 |  | 0.0877 | 0.0885 |  | 0.0669 |  |  |  | 0.0672 | 0.106 | 0.0979 | 0.076 |  |  | 
3 | MGESLFKGPRDYNPISSSICHLTNESDGHTTSLYGIGFGPFIITNKHLFRRNNGTLVVQSLHGVFKVKDTTTLQQHLVDGRDMIIIRMPKDFPPFPQKLKFREPQREERICLVTTNFQTKSMSSMVSDTSCTFPSGDGIFWKHWIQTKDGQCGSPLVSTRDGFIVGIHSASNFTNTNNYFTSVPKNFMELLTNQEAQQWVSGWRLYADSVLWGGHKVFMVKPEEPFQPVKEATQL [N206Y] | 0.0533 | 0.0597 | 0.0653 |  | 0.024 | 0.0262 |  |  |  |  |  |  |  |  |  |  | 
4 | MGESLFKGPRDYNPISSSICHLTNESDGHTTSLYGIGFGPFIITNKHLFRRNNGTLVVQSLHGVFKVKDTTTLQQHLVDGRDMIIIRMPKDFPPFPQKLKFREPQREERICLVTTNFQTKSMSSMVSDTSCTFPSGDGIFWKHWIQTKDGQCGSPLVSTRDGFIVGIHSASNFTNTNNYFTSVPKNFMELLTNQEAQQWVSPWRLNADSVLWGGHKVFMVKPEEPFQPVKEATQL [G202P] | 0.0671 | 0.0545 | 0.0603 | 0.0553 |  | 0.0533 | 0.0517 | 0.0709 |  |  | 0.0588 |  |  | 0.0493 | 0.057 | 0.0582 | 0.0236
5 | MGESLFKGPRDYNPISSSICHLTNESDGHTTSLYGIGFGPFIITNKHLFRRNNGTLVVQSLHGVFKVKDTTTLQQHLVDGRDMIIIRMPKDFPPFPQKLKFREPQREERICLVTTNFQTKSMSSMVSDTSCTFPSGDGIFWKHWIQTKDGQCGSPLVSTRDGFIVGIHSASNFTNTNNYFTSVPKNFMELLTNQEAQQWVSTWRLNADSVLWGGHKVFMVKPEEPFQPVKEATQL [G202T] | 0.0579 | 0.069 |  |  |  | 0.0582 |  |  |  |  |  |  |  | 0.0598 | 0.0456 | 0.0606 | 
6 | MGESLFKGPRDYNPISSSICHLTNESDGHTTSLYGIGFGPFIITNKHLFRRNNGTLVVQSLHGVFKVKDTTTLQQHLVDGRDMIIIRMPKDFPPFPQKLKFREPQREERICLVTTNFQTKSMSSMVSDTSCTFPSGDGIFWKHWIQTKDGQCGSPLVSTRDGFIVGIHSASNFTNTNNYFTSVPKNFMELLTNQEAQQWVSGWRLNHDSVLWGGHKVFMVKPEEPFQPVKEATQL [A207H] | 0.0645 | 0.0687 |  |  |  | 0.0492 |  |  |  |  |  |  |  | 0.0542 | 0.056 |  | 0.0661
7 | MGESLFKGPRDYNPISSSICHLTNESDGHTTSLYGIGFGPFIITNKHLFRRNNGTLVVQSLHGVFKVKDTTTLQQHLVDGRDMIIIRMPKDFPPFPQKLKFREPQREERICLVTTNFQTKSMSSMVSDTSCTFPSGDGIFWKHWIQTKDGQCGSPLVSTRDGFIVGIHSASNFTNTNNYFTSVPKNFMELLTNQEAQQWVSGWRLNADSVLWGPHKVFMVKPEEPFQPVKEATQL [G214P] | 0.0686 | 0.0506 | 0.0575 | 0.0594 | 0.0461 | 0.0513 |  |  |  | 0.0557 | 0.0645 | 0.0845 | 0.0489 | 0.0541 |  |  | 0.0531
8 | MGESLFKGPRDYNPISSSICHLTNESDGHTTSLYGIGFGPFIITNKHLFRRNNGTLVVQSLHGVFKVKDTTTLQQHLVDGRDMIIIRMPKDFPPFPQKLKFREPQREERICLVTTNFQTKSMSSMVSDTSCTFPSGDGIFWKHWIQTKDGQCGSPLVSTRDGFIVGIHSASNFTNTNNYFTSVPKNFMELLTNQEAQQWVSGWRLNADSVLPGGHKVFMVKPEEPFQPVKEATQL [W212P] | 0.0608 | 0.0377 | 0.0577 |  | 0.0581 |  |  |  |  |  | 0.0761 |  |  | 0.0547 |  |  | 
9 | MGESLFKGPRDYNPISSSICHLTNESDGHTTSLYGIGFGPFIITNKHLFRRNNGTLVVQSLHGVFKVKDTTTLQQHLVDGRDMIIIRMPKDFPPFPQKLKFREPQREERICLVTTNFQTKSMSSMVSDTSCTFPSGDGIFWKHWIQTKDGQCGSPLVSTRDGFIVGIHSASNFTNTNNYFTSVPKNFMELLTNQEAQQWVSGWRLNADSVLLGGHKVFMVKPEEPFQPVKEATQL [W212L] | 0.0611 | 0.0835 | 0.0746 | 0.0708 | 0.0598 | 0.0684 |  |  |  | 0.0669 | 0.0656 | 0.103 |  | 0.0704 | 0.0674 | 0.0719 | 0.0767
10 | MGESLFKGPRDYNPISSSICHLTNESDGHTTSLYGIGFGPFIITNKHLFRRNNGTLVVQSLHGVFKVKDTTTLQQHLVDGRDMIIIRMPKDFPPFPQKLKFREPQREERICLVTTNFQTKSMSSMVSDTSCTFPSGDGIFWKHWIQTKDGQCGSPLVSTRDGFIVGIHSASNFTNTNNYFTSVPKNFMELLTNQEAQQWVSGWRINADSVLWGGHKVFMVKPEEPFQPVKEATQL [L205I] | 0.0653 |  | 0.0749 |  |  |  |  |  | 0.0751 | 0.0843 |  |  |  | 0.0519 |  | 0.0689 | 
